Test results from paper PMC9724675.
No constants are given. Whether binding was seen depends on the method and setting. In cells and extracts the contact can be indirect. Some results given as binding are weak or reduced against the parent protein; the word gives no strength. Tags and fused reporters may be left off the sequences shown.

Chains of the proteins cited; added tags and fusions are not shown.
UniProt O95069: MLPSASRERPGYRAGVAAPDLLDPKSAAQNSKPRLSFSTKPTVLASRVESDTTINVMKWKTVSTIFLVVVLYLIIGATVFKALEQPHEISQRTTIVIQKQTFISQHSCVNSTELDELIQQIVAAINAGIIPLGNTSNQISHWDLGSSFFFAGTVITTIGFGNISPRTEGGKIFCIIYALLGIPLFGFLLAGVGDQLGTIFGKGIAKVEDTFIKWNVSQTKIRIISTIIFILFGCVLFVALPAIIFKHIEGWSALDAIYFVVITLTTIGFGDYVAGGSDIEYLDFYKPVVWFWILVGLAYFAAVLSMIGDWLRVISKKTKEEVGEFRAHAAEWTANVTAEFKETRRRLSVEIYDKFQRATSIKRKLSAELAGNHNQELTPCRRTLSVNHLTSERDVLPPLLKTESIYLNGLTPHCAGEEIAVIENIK

T1: AC9-VN and AC9-VC (AC9 fused to the N-terminal or C-terminal half of Venus) (human), O60503
T1 chain: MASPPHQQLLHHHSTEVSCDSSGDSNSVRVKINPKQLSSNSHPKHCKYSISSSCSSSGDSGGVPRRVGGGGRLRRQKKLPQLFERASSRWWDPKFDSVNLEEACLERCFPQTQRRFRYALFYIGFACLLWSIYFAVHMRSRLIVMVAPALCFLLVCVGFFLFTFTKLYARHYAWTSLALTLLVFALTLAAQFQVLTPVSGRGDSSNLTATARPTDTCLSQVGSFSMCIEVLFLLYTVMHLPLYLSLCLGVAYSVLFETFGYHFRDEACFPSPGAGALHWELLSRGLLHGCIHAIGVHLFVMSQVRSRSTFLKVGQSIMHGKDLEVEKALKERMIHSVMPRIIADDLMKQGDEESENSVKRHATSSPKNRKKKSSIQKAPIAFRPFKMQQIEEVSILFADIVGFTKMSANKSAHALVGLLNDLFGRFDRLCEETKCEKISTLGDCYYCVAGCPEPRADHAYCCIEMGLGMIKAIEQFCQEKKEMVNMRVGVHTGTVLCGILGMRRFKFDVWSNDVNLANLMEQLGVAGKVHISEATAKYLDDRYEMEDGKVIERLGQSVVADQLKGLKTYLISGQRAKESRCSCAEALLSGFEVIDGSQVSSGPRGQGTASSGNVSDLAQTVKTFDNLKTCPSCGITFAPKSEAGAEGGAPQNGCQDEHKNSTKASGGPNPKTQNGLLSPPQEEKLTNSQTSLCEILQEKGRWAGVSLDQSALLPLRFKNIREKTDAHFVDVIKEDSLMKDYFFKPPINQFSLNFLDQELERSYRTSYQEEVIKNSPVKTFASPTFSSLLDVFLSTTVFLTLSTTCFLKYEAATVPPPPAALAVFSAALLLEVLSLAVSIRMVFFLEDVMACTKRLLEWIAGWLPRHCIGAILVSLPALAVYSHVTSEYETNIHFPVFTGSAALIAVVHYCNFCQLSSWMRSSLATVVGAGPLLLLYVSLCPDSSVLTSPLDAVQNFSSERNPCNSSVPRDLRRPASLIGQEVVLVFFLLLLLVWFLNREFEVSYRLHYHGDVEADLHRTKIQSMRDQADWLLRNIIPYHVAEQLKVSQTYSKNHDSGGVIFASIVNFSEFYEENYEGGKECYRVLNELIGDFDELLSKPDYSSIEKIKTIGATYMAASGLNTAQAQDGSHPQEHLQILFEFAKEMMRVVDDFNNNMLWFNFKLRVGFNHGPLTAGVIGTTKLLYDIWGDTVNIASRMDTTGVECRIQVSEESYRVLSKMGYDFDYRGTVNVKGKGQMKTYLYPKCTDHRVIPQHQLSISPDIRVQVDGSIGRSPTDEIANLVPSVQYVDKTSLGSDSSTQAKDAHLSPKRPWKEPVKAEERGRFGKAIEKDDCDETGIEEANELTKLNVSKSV

T2: POPDC1-VN and POPDC1-VC (mouse POPDC1 fused to a half of Venus) (mouse) (UniProt Q9ES83)
T2 sequence: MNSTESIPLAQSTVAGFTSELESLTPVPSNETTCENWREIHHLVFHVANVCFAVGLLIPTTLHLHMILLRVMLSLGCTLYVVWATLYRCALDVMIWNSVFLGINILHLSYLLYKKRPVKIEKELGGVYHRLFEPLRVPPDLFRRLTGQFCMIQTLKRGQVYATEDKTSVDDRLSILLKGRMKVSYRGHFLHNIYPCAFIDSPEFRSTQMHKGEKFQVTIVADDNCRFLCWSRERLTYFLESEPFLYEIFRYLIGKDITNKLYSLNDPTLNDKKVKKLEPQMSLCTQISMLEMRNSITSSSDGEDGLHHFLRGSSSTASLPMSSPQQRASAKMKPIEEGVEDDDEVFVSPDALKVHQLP

T3: Flag-tagged AC9 (adenylyl cyclase 9) (human) (UniProt O60503)
T3 sequence: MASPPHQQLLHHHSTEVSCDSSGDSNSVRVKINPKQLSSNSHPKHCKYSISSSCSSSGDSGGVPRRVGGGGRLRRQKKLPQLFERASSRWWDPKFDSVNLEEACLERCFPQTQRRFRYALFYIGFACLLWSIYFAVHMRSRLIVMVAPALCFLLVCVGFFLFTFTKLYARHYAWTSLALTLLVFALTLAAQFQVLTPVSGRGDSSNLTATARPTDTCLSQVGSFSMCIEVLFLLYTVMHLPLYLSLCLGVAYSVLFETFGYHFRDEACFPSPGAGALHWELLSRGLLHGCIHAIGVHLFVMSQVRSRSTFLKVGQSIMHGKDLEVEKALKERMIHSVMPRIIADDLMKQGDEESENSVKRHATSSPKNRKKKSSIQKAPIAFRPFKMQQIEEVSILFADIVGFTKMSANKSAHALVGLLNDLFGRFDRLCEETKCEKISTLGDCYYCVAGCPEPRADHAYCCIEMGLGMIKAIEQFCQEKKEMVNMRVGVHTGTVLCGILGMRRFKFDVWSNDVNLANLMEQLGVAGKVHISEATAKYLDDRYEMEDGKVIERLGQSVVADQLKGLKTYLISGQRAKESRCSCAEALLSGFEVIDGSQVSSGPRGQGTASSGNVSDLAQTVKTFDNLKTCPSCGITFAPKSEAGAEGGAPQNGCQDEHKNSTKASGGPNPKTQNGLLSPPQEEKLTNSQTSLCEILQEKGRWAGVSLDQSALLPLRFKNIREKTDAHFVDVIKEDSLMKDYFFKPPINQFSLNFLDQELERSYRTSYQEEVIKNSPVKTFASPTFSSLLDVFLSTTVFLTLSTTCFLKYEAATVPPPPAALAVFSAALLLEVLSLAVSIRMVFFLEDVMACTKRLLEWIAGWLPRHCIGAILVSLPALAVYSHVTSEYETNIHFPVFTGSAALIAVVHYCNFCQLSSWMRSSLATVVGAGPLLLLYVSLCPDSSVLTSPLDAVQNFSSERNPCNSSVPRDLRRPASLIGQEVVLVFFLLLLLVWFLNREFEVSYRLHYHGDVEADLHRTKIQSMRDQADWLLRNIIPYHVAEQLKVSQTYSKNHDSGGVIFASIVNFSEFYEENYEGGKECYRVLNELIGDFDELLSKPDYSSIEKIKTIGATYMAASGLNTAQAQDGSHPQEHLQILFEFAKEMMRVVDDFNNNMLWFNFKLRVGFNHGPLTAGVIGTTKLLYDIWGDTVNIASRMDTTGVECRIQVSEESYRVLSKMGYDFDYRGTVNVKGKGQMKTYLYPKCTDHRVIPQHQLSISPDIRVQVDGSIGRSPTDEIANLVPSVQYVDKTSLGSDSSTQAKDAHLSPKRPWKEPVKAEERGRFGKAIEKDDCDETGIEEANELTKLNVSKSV


Assays:
[1] = target: T1, AC9-VN and AC9-VC (AC9 fused to the …); assay: split reporter; BiFC (split Venus, VN and VC) in HEK293 cells, which express endogenous POPDC1 and POPDC2; plate reader and live-cell imaging; with or without ISO (10 μM, 10 min, 37°C; dose-response); conditions: remark: other sources report otherwise
[2] = target: T2, POPDC1-VN and POPDC1-VC (mouse POPDC1 fused to a half of Venus) (mouse); assay: as above
[3] = target: YFP-tagged TREK-1 (human) (UniProt O95069); assay: co-IP; HEK293 lysates, immunoprecipitation of YFP-tagged TREK-1 (anti-GFP or TREK-1 antibodies), western blot; with or without overexpressed POPDC1-Myc or AKAP79; with or without ISO (10 μM, 10 min)
[4] = target: T3, Flag-tagged AC9 (adenylyl cyclase 9) (human); assay: co-IP; HEK293 lysates, immunoprecipitation of Flag-AC9 with anti-FLAG, western blot with anti-MYC and anti-FLAG

Binder | binding [3] | binding [4] | further results
AC9-VN and AC9-VC (AC9 fused to the N-terminal or C-terminal half of Venus), O60503 1-1353 (enzyme) MASPPHQQLLHHHSTEVSCDSSGDSNSVRVKINPKQLSSNSHPKHCKYSISSSCSSSGDSGGVPRRVGGGGRLRRQKKLPQLFERASSRWWDPKFDSVNLEEACLERCFPQTQRRFRYALFYIGFACLLWSIYFAVHMRSRLIVMVAPALCFLLVCVGFFLFTFTKLYARHYAWTSLALTLLVFALTLAAQFQVLTPVSGRGDSSNLTATARPTDTCLSQVGSFSMCIEVLFLLYTVMHLPLYLSLCLGVAYSVLFETFGYHFRDEACFPSPGAGALHWELLSRGLLHGCIHAIGVHLFVMSQVRSRSTFLKVGQSIMHGKDLEVEKALKERMIHSVMPRIIADDLMKQGDEESENSVKRHATSSPKNRKKKSSIQKAPIAFRPFKMQQIEEVSILFADIVGFTKMSANKSAHALVGLLNDLFGRFDRLCEETKCEKISTLGDCYYCVAGCPEPRADHAYCCIEMGLGMIKAIEQFCQEKKEMVNMRVGVHTGTVLCGILGMRRFKFDVWSNDVNLANLMEQLGVAGKVHISEATAKYLDDRYEMEDGKVIERLGQSVVADQLKGLKTYLISGQRAKESRCSCAEALLSGFEVIDGSQVSSGPRGQGTASSGNVSDLAQTVKTFDNLKTCPSCGITFAPKSEAGAEGGAPQNGCQDEHKNSTKASGGPNPKTQNGLLSPPQEEKLTNSQTSLCEILQEKGRWAGVSLDQSALLPLRFKNIREKTDAHFVDVIKEDSLMKDYFFKPPINQFSLNFLDQELERSYRTSYQEEVIKNSPVKTFASPTFSSLLDVFLSTTVFLTLSTTCFLKYEAATVPPPPAALAVFSAALLLEVLSLAVSIRMVFFLEDVMACTKRLLEWIAGWLPRHCIGAILVSLPALAVYSHVTSEYETNIHFPVFTGSAALIAVVHYCNFCQLSSWMRSSLATVVGAGPLLLLYVSLCPDSSVLTSPLDAVQNFSSERNPCNSSVPRDLRRPASLIGQEVVLVFFLLLLLVWFLNREFEVSYRLHYHGDVEADLHRTKIQSMRDQADWLLRNIIPYHVAEQLKVSQTYSKNHDSGGVIFASIVNFSEFYEENYEGGKECYRVLNELIGDFDELLSKPDYSSIEKIKTIGATYMAASGLNTAQAQDGSHPQEHLQILFEFAKEMMRVVDDFNNNMLWFNFKLRVGFNHGPLTAGVIGTTKLLYDIWGDTVNIASRMDTTGVECRIQVSEESYRVLSKMGYDFDYRGTVNVKGKGQMKTYLYPKCTDHRVIPQHQLSISPDIRVQVDGSIGRSPTDEIANLVPSVQYVDKTSLGSDSSTQAKDAHLSPKRPWKEPVKAEERGRFGKAIEKDDCDETGIEEANELTKLNVSKSV |  |  | binding [1]: binds
POPDC1-VN and POPDC1-VC (mouse POPDC1 fused to a half of Venus) (protein, UniProt Q9ES83 1-358) MNSTESIPLAQSTVAGFTSELESLTPVPSNETTCENWREIHHLVFHVANVCFAVGLLIPTTLHLHMILLRVMLSLGCTLYVVWATLYRCALDVMIWNSVFLGINILHLSYLLYKKRPVKIEKELGGVYHRLFEPLRVPPDLFRRLTGQFCMIQTLKRGQVYATEDKTSVDDRLSILLKGRMKVSYRGHFLHNIYPCAFIDSPEFRSTQMHKGEKFQVTIVADDNCRFLCWSRERLTYFLESEPFLYEIFRYLIGKDITNKLYSLNDPTLNDKKVKKLEPQMSLCTQISMLEMRNSITSSSDGEDGLHHFLRGSSSTASLPMSSPQQRASAKMKPIEEGVEDDDEVFVSPDALKVHQLP |  |  | binding [2]: binds
POPDC1-Myc (Popeye domain-containing protein 1, Myc-tagged) (protein, UniProt Q9ES83 1-358) MNSTESIPLAQSTVAGFTSELESLTPVPSNETTCENWREIHHLVFHVANVCFAVGLLIPTTLHLHMILLRVMLSLGCTLYVVWATLYRCALDVMIWNSVFLGINILHLSYLLYKKRPVKIEKELGGVYHRLFEPLRVPPDLFRRLTGQFCMIQTLKRGQVYATEDKTSVDDRLSILLKGRMKVSYRGHFLHNIYPCAFIDSPEFRSTQMHKGEKFQVTIVADDNCRFLCWSRERLTYFLESEPFLYEIFRYLIGKDITNKLYSLNDPTLNDKKVKKLEPQMSLCTQISMLEMRNSITSSSDGEDGLHHFLRGSSSTASLPMSSPQQRASAKMKPIEEGVEDDDEVFVSPDALKVHQLP | binds | binds | 
POPDC2-Myc (protein, UniProt Q9ES82 1-367) MSANGSSVAQLLWQPPVCRSWKPDVEGAVYHLANCFLLMGFMAGSGVYGCFYLFGILGPGYLCCVLWGWFDACGLDIVLWNVLLTVACLLQLAQLVYRVRVNTLPEEFNLLYRTLCLPLQVPLQVYKEIVHCCHEQVLTLATEQTYAVEGETPINRLSLLLSGRVRVSQDGQFLHYIFPYQFMDSPEWESLHPSEEGTFQVTLTAETECSYISWPRKNLYLLLNRERYISRLFSALLGYDISEKLYTLNDKLFAKFGLRFDIRLPSLYHVLSPSASDGEPESEKDDEEALEAAVSPAQARPICIVPTPPCSAPPATTNFPVPLPRARMPRMPRPDSGNLASRRPLQNSSQVMSRSQAPLAPIHTPEL |  | binds | 
endogenous POPDC1 of HEK293 cells (protein, UniProt Q8NE79 1-360) MNYTESSPLRESTAIGFTPELESIIPVPSNKTTCENWREIHHLVFHVANICFAVGLVIPTTLHLHMIFLRGMLTLGCTLYIVWATLYRCALDIMIWNSVFLGVNILHLSYLLYKKRPVKIEKELSGMYRRLFEPLRVPPDLFRRLTGQFCMIQTLKKGQTYAAEDKTSVDDRLSILLKGKMKVSYRGHFLHNIYPCAFIDSPEFRSTQMHKGEKFQVTIIADDNCRFLCWSRERLTYFLESEPFLYEIFRYLIGKDITNKLYSLNDPTLNDKKAKKLEHQLSLCTQISMLEMRNSIASSSDSDDGLHQFLRGTSSMSSLHVSSPHQRASAKMKPIEEGAEDDDDVFEPASPNTLKVHQLP | binds |  | 
